This is one part of the list. At the low end of the ranking the order means little.

This experiment concerns the target SIX1-Q177R homeodomain (UniProt Q15475). Put plainly: universal protein binding microarray. The settings on record: Universal all-10-mer PBM (8x60K, AMADID 030236), 300 nM GST-tagged protein, Alexa Fluor 488 anti-GST; buffer, salt, pH and temperature not stated; high values mean tight binding; most listed sequences are background and not binding sites; double strand, one strand shown.
In the case of CCGTACCG, the binding signal is -0.0466 E-score.

In the case of GCTGGTGA, the binding signal is -0.158 E-score.

ACGACTCG: the binding signal is 0.145 E-score.

With GTTTTCGA, the binding signal is -0.169 E-score. The result for CCCTCGCC reads 0.0869 E-score; that for ACTCAAAC, 0.0401 E-score.

As for GGTGGTAA, the binding signal was -0.0288 E-score. For CATCGTAA the value was -0.0939 E-score. For the sequence ATGATCAT, the binding signal was -0.221 E-score. For CATTCCGG the value was -0.0597 E-score; for CTAATCAA, 0.141 E-score. For ATCCAGTA the value was 0.053 E-score; for CTGAGTTA, -0.123 E-score. Regarding CGATACAA, the binding signal came to 0.0318 E-score. For CAGATAGG the value was -0.21 E-score; for AGTATCTG, -0.173 E-score; for GTACGAAC, -0.0465 E-score. With AGAGAAAA, the binding signal was -0.185 E-score. The result for AGCTCACA reads 0.0519 E-score. The result for AAACCTTG reads -0.0519 E-score; that for CACGGGTA, 0.291 E-score.

In the case of ACTCGACC, the binding signal was 0.18 E-score. The result for AGATCGGG reads 0.00864 E-score; that for TAGCTCCA, -0.124 E-score; that for ATGGTGAC, -0.0466 E-score. GAAGAGTA: the binding signal is -0.0747 E-score.

With TCATTACA, the binding signal came to 0.121 E-score. For CCTGGAGA the value was -0.102 E-score.

Take CTAGCCGA: the binding signal was -0.0514 E-score. For GCGTAACC the value was 0.00677 E-score; for CCGACCGG, 0.172 E-score; for AAAGGTAA, -0.115 E-score. Turning to CAGAATGA, the binding signal is -0.201 E-score. The result for CCCGCAGA reads -0.0384 E-score; that for GGGGAGTA, 0.256 E-score.

With CGGCGCTA, the binding signal is -0.0894 E-score. The result for TCGCTCCA reads 0.00362 E-score; that for CTACCGTC, -0.0438 E-score; that for ATGAGCAG, -0.208 E-score. For the sequence GCCGGGCC, the binding signal is -0.183 E-score. The result for CGCAGTAC reads -0.0319 E-score.

With CTCTAAAA, the binding signal was -0.211 E-score.

On to CATGATGG, for which the binding signal was found to be 0.00502 E-score. For TTAAGCAA the value was -0.0696 E-score. For ATGTAAGG the value was -0.0436 E-score; for GCACCTGC, 0.0304 E-score; for TACATAGA, -0.17 E-score.

Consider CGTGCAAC, for which the binding signal turned out to be 0.0789 E-score. The result for CCACGTTC reads -0.13 E-score; that for AGCTTCCC, -0.182 E-score; that for GCCGAGAA, -0.23 E-score. The result for AGATGCAT reads -0.277 E-score; that for CCCAAGTA, -0.105 E-score. The result for GAGCCAAC reads -0.0196 E-score; that for ACCGTATA, 0.0745 E-score. As for ATATGTTA, the binding signal is -0.175 E-score. Take TCCGCCCA: the binding signal amounted to 0.0172 E-score. The result for GGTCCAAA reads -0.0362 E-score. The result for ACTGTAGG reads 0.00611 E-score. AACGGTAA: the binding signal was -0.123 E-score.

On to ACTGGTAC, for which the binding signal was determined as 0.192 E-score.

With CTTGAACA, the binding signal is 0.0794 E-score. For GGTCACAC the value was 0.384 E-score; for AACTATGT, -0.229 E-score; for CTTACATC, 0.0188 E-score. For GGCAGCCA the value was -0.154 E-score; for GCACCGCA, 0.169 E-score. The result for CTCCCAAA reads -0.149 E-score; that for ACCCCTGG, 0.163 E-score.

Consider CTGAGGGC, for which the binding signal is -0.292 E-score.

In the case of GTAAAGCA, the binding signal is 0.0324 E-score. The result for AATTTGCT reads -0.198 E-score.

With GCCAGCAC, the binding signal was determined as 0.0623 E-score.

Take CGTGAACG: the binding signal was -0.16 E-score. The result for GTCTTGTA reads -0.183 E-score; that for GGACAATA, 0.00495 E-score. For CCTCTATA, the binding signal is -0.188 E-score. For TCAGTAGA the value was -0.164 E-score; for CATAACGG, -0.0211 E-score. Turning to CACTAGAG, the binding signal was determined as 0.137 E-score. For AGTTGCAA, the binding signal was -0.204 E-score. The result for CTGGAAAA reads 0.0754 E-score. For CTGGACGA the value was -0.178 E-score; for TGGATACA, 0.274 E-score. The result for CACGAAAA reads 0.157 E-score. As for GTCAGCAA, the binding signal was -0.155 E-score. On to AGCCAAGG, for which the binding signal was -0.1 E-score. For CGGAGTTA the value was 0.253 E-score; for GCCCTCGC, 0.0477 E-score; for CCAGAAAG, 0.0543 E-score.

Consider GATCTACA, for which the binding signal was -0.0241 E-score. For ACAAACGA the value was -0.0121 E-score; for ACACAACA, 0.268 E-score. The result for AAATAACG reads -0.0651 E-score; that for CAGTAACA, 0.107 E-score; that for ATAGGACC, 0.0508 E-score. For GCGTCAGA the value was 0.0786 E-score; for ACAGAGCT, -0.276 E-score.

On to CCCCTGCC, for which the binding signal was found to be 0.147 E-score. Take CTGGAACA: the binding signal was found to be 0.0678 E-score. The result for TCTAGCCA reads -0.0318 E-score; that for GATGAAAC, -0.00426 E-score; that for GAACCAAA, -0.15 E-score.

On to CAGAAAAG, for which the binding signal was -0.2 E-score.

Turning to AGCGGTCG, the binding signal was -0.0292 E-score.

Turning to CGTTAGTA, the binding signal is -0.0206 E-score. Take AGCAGGGA: the binding signal is -0.0847 E-score. The result for GATTAGCA reads -0.134 E-score. The result for ACTGGCCT reads -0.0829 E-score; that for AATGAGGA, -0.173 E-score; that for AATAACTG, -0.0154 E-score. For ACATTAGC the value was -0.204 E-score; for CACTAGTA, 0.116 E-score; for CGCAATTC, -0.0897 E-score. On to AGATGGCA, for which the binding signal is -0.093 E-score.

On to AAACACAT, for which the binding signal stood at 0.124 E-score.

On to CAGTCAAA, for which the binding signal was -0.206 E-score. The result for AGTAACAT reads -0.113 E-score; that for ATGGCTAC, 0.02 E-score. Take GACGGCCA: the binding signal is -0.171 E-score. For CTAAGCGC the value was -0.115 E-score; for ATAGAGCA, -0.158 E-score. The result for CCTGCTTA reads 0.0949 E-score; that for CAGTGCCA, 0.00739 E-score; that for ATCAGCAT, -0.21 E-score. The result for CGCGCCCC reads 0.0252 E-score; that for ACGTGTGA, 0.293 E-score. For the sequence CTCCTCTC, the binding signal was -0.0811 E-score. For ACCTACTC the value was 0.0711 E-score; for GACCTTAA, -0.155 E-score. The result for GGCTTTCA reads -0.134 E-score. In the case of AATTCTCA, the binding signal is -0.136 E-score. Take GCCTAACA: the binding signal was 0.101 E-score. For CGTACAAG the value was -0.101 E-score; for CTAGATTC, -0.162 E-score.

On to CTTCTACA, for which the binding signal was determined as 0.161 E-score. For AGGGCGGA the value was -0.168 E-score. Take CTTTGTCC: the binding signal was -0.117 E-score. The result for CGCGCTAG reads 0.0356 E-score; that for TATAACCA, -0.0751 E-score; that for CATGTCTC, -0.097 E-score. The result for CAATCATC reads -0.195 E-score. For ACTATAAG the value was 0.0555 E-score.

In the case of GAGTTCGC, the binding signal turned out to be 0.0321 E-score. The result for GGTGAGAC reads -0.0183 E-score; that for GACAGGGA, -0.132 E-score. The result for TGGCTAAA reads -0.179 E-score.

As for GGAGTAAA, the binding signal came out at 0.222 E-score. For GGAACGGA the value was -0.172 E-score.

Regarding AAGTTAGC, the binding signal was -0.225 E-score. Turning to ACGATTTA, the binding signal is -0.0812 E-score. AGTTTCCC: the binding signal was -0.0788 E-score.

In the case of GCCCCTTA, the binding signal was -0.00974 E-score. Regarding TCCTGAGA, the binding signal was -0.213 E-score. With AAACTACC, the binding signal is -0.0394 E-score.

Consider AATAATTA, for which the binding signal was -0.0787 E-score. Regarding CTAGGTAC, the binding signal turned out to be 0.0616 E-score. As for TAGGAAGA, the binding signal is -0.141 E-score. For ATCTTTAC the value was 0.0524 E-score. The result for AGAAACGC reads -0.0464 E-score; that for CACACTAC, 0.297 E-score. The result for AAGAAGGT reads 0.18 E-score. As to GGGTAGCA, the binding signal worked out at 0.113 E-score. The result for AGTACGTG reads 0.0713 E-score; that for GGAGACCA, -0.106 E-score. For ATTTAAAG the value was -0.175 E-score. For ATCACCGG the value was 0.0516 E-score; for ACACTAAG, 0.337 E-score.

As to CAAATCGA, the binding signal is -0.21 E-score. In the case of CGGTACGA, the binding signal stood at 0.0387 E-score.

With ACTCCAAT, the binding signal was determined as 0.0604 E-score. For GATGTACA the value was 0.14 E-score.

These data come from publication PMC10668032.
